Data reported in the supplement of paper PMC7125110.
± gives the standard error. Variants at the background level are over-represented here.

B1: glmS ribozyme (parent)
chain: AUAAAAGCGCCAGAACUACAGAAAUGUAGUUGACGAGGAGGAGGUUUAUCGAAUUUUCGGCGGAUGCCUCCAAA

Variants of: B1
Assay: self-cleavage kobs at 2500 uM GlcN6P; higher = faster cleavage; RNA array
Settings: with glucosamine-6-phosphate
Procedure, shortened: (§1)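 Using a hybridised Cy3 probe at 37 °C, barcoded ribozyme variants transcribed in situ by E. coli RNA polymerase on sequenced MiSeq chips were monitored across tiles imaged over ~14 h. The flow contained glucosamine-6-phosphate from 40 μM to 10 mM in HEPES/KCl/Mg(OAc)2 buffer. Signals were normalised to baseline and to non-cleaving reference variants before per-tile medians were fit to one- or two-exponential decays to yield kobs. Weighted Michaelis–Menten fits across concentrations gave kcat and KM.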
For AUAAAAGCGCCAGAACUACAGAAAUGUAGUUUACGGGGAGGAGGUUUAUCCAAUUUUCGGGGGAAGCCUCCAAA [G32U A36G G51C C61G U65A], the “self-cleavage kobs at 2500 uM GlcN6P” value was < 1e-05 s⁻¹.
AUAAAAGCGCCAGAACUACAGAAAUGUAGUGGACGAGGAAUAGGUUUAUCGACAUUUGGGCGGAUGUCUCCAAA [U31G G40A G41U A53C U54A C58G C67U] was tested, and the “self-cleavage kobs at 2500 uM GlcN6P” value was < 1e-05 s⁻¹.
In the case of AUAAAAGCGCCAGAACUACAGAAAUGUAGUUAACGAGGAGGCGGUUUAUCGAAUUUUCGGCUGAUGCCUCCAAA [G32A A42C G62U], the “self-cleavage kobs at 2500 uM GlcN6P” value is reported as < 1e-05 s⁻¹.
For AUAAAAGCGCCAGAACUACAGAAAUGUAGUUGCCGAGGAGGAGGUUCAUCGAAUUUUCGGCGGUUGCCUCCAAA [A33C U47C A64U], the “self-cleavage kobs at 2500 uM GlcN6P” value was < 1e-05 s⁻¹.
In the case of AUAAAAGCGCCAGAACUACAGAAAUGUAGUUUACGAGGACGAUGUUUAUUGAAUUUUCGGCGGAUGCCUCCAAA [G32U G40C G43U C50U], the “self-cleavage kobs at 2500 uM GlcN6P” value is reported as < 1e-05 s⁻¹.
In the case of AUAAAAGCGCCAGAACUACAGAAAUGUAGUUGCCGAGGUGGAGGUAUAUCGAUUUUUCUGCGGAUGCCUCCAAA [A33C A39U U46A A53U G59U], the “self-cleavage kobs at 2500 uM GlcN6P” value is reported as < 1e-05 s⁻¹.
For AUAAAAGCGCCAGAACUACAGAAAUGUAGUUGGCGAGGAGGUGGUUAAUCGAGUUUUCGGCGGAUGCCUCCAAA [A33G A42U U47A A53G], the “self-cleavage kobs at 2500 uM GlcN6P” value was < 1e-05 s⁻¹.
AUAAAAGCGCCAGAACUACAGAAAUGUAGUUUACUAGGAGGAGGUUUAUCGAAUUUUAGGCUGAUGCCUUCAAA [G32U G35U C58A G62U C70U] was tested, and the “self-cleavage kobs at 2500 uM GlcN6P” value was < 1e-05 s⁻¹.
With AUAAAAGCGCCAGAACUACAGAAAUGUAGUUCAAGAGGCGGGGGUUUAUCGAAUUUCCGGCGGAUGCCUCCAAA [G32C C34A A39C A42G U57C] the “self-cleavage kobs at 2500 uM GlcN6P” value was < 1e-05 s⁻¹.
AUAAAAGCGCCAGAACUACAGAAAUGUAGUGGACGAGGAAGAGGUUUCUCGAAUUUUCGGCGGAUGCCUCCAAA [U31G G40A A48C] was tested, and the “self-cleavage kobs at 2500 uM GlcN6P” value was < 1e-05 s⁻¹.
With AUAAAAGCGCCAGAACUACAGAAAUGUAGUUGCCGAGGAGGAGGUUUCUCGAAUUUUCGGCGGAUGCCUCUAAA [A33C A48C C71U] the “self-cleavage kobs at 2500 uM GlcN6P” value was < 1e-05 s⁻¹.
For AUAAAAGCGCCAGAACUACAGAAAUGUAGUCGACGACGAGGAGGUUUGGCGAACUUUCGGCGGAUGCCUCAAAA [U31C G37C A48G U49G U54C C71A], the “self-cleavage kobs at 2500 uM GlcN6P” value was < 1e-05 s⁻¹.
For AUAAAAGCGCCAGAACUACAGAAAUGUAGUUUACGAGGAGGGGGUUUAUCGAAUCCUGGGCGGAUGCCUCCAAA [G32U A42G U55C U56C C58G], the “self-cleavage kobs at 2500 uM GlcN6P” value was 5.49e-05 ± 1.3e-05 s⁻¹.
In the case of AUAAAAGCGCCAGAACUACAGAAAUGUAGUUUACUAGGAGGAGGUUUAUUGAAUUUUCGGCGGAUGCCUCCAAA [G32U G35U C50U], the “self-cleavage kobs at 2500 uM GlcN6P” value is reported as < 1e-05 s⁻¹.
In the case of AUAAAAGCGCCAGAACUACAGAAAUGUAGUUGUCGAGGGGAAGGUUUAUCGAAUUUUUGGCGGAUGCCUCCAAA [A33U A39G G41A C58U], the “self-cleavage kobs at 2500 uM GlcN6P” value is reported as < 1e-05 s⁻¹.
With AUAAAAGCGCCAGAACUACAGAAAUGUAGUUGGCGAGGAGGAGGUUUAUCCAAUUUUCGGCGGAUGCCUCUAAA [A33G G51C C71U] the “self-cleavage kobs at 2500 uM GlcN6P” value was < 1e-05 s⁻¹.
With AUAAAAGCGCCAGAACUACAGAAAUGUAGUUCCCGCGGAGGAGGUUUAUCGAAUUUUCGGCGGAGGCCUCCAAA [G32C A33C A36C U65G] the “self-cleavage kobs at 2500 uM GlcN6P” value was < 1e-05 s⁻¹.
With AUAAAAGCGCCAGAACUACAGAAAUGUAGUGGAUGAGGAGGAGGUUUAUCGAAUUUUCGGGGCAUGCCUCCAAA [U31G C34U C61G G63C] the “self-cleavage kobs at 2500 uM GlcN6P” value was < 1e-05 s⁻¹.
In the case of AUAAAAGCGCCAGAACUACAGAAAUGUAGUUGGCGAGGUGGAGGUAUAUCGAAUUUUCGGUGGAUGCCUCCAAA [A33G A39U U46A C61U], the “self-cleavage kobs at 2500 uM GlcN6P” value is reported as < 1e-05 s⁻¹.
AUAAAAGCGCCAGAACUACAGAAAUGUAGUGGACGAGGAGGACGUUUAUCGAAUGUUCGGCGGAUGCCUUCAAA [U31G G43C U55G C70U] was tested, and the “self-cleavage kobs at 2500 uM GlcN6P” value was < 1e-05 s⁻¹.
In the case of AUAAAAGCGCCAGAACUACAGAAAUGUAGUUGGCGUGGAGGAGGUUAAUCGAAUUUUCGGCGGAUGCCUCCAAA [A33G A36U U47A], the “self-cleavage kobs at 2500 uM GlcN6P” value is reported as < 1e-05 s⁻¹.
AUAAAAGCGCCAGAACUACAGAAAUGUAGUUAACGAGGAGGAGGUUUAUGGAAUUUUCGGCGGAUGCCUCUAAA [G32A C50G C71U] was tested, and the “self-cleavage kobs at 2500 uM GlcN6P” value was 0.000168 ± 7.3e-05 s⁻¹.
For AUAAAAGCGCCAGAACUACAGAAAUGUAGUUGGCGAGGAGGAGGUUUAUCGAAUUUUCGUCGGGUGCCACCAAA [A33G G60U A64G U69A], the “self-cleavage kobs at 2500 uM GlcN6P” value was < 1e-05 s⁻¹.
For AUAAAAGCGCCAGAACUACAGAAAUGUAGUUGCGGAGGAGGAGGUUUUUCGAAUUUUCGGCGGAUGCCUCCAAA [A33C C34G A48U], the “self-cleavage kobs at 2500 uM GlcN6P” value was < 1e-05 s⁻¹.
For AUAAAAGCGCCAGAACUACAGAAAUGUAGUUGCCGAGGAGGAGGUUUAUCGCAUUUUCGGCGGAUGCCUGCAAA [A33C A52C C70G], the “self-cleavage kobs at 2500 uM GlcN6P” value was < 1e-05 s⁻¹.
With AUAAAAGCGCCAGAACUACAGAAAUGUAGUCGACUAGGAGGGGGUUUAUCGAAUUUUCGGCGGAUGCCUCCAAA [U31C G35U A42G] the “self-cleavage kobs at 2500 uM GlcN6P” value was < 1e-05 s⁻¹.
In the case of AUAAAAGCGCCAGAACUACAGAAAUGUAGUUAACGAAGAGGAGUUCUACCGAAUUUUCGGCGGAUGCCUCCAAA [G32A G37A G44U U46C U49C], the “self-cleavage kobs at 2500 uM GlcN6P” value is reported as < 1e-05 s⁻¹.
For AUAAAAGCGCCAGAACUACAGAAAUGUAGUUAACGAGGAGGAGGUUUAACGAAUUUUCGGCGGAGGCCUCCAAA [G32A U49A U65G], the “self-cleavage kobs at 2500 uM GlcN6P” value was < 1e-05 s⁻¹.
AUAAAAGCGCCAGAACUACAGAAAUGUAGUUCACGAGGAGGGGGUUUAUCGAAUUUGCGGCAGAUGCCUCAAAA [G32C A42G U57G G62A C71A] was tested, and the “self-cleavage kobs at 2500 uM GlcN6P” value was < 1e-05 s⁻¹.
In the case of AUAAAAGCGCCAGAACUACAGAAAUGUAGUGGACGAGGAGGAGUUUUAUCGAAUUUUCGGCGGAUGCCUGCAAA [U31G G44U C70G], the “self-cleavage kobs at 2500 uM GlcN6P” value is reported as < 1e-05 s⁻¹.
For AUAAAAGCGCCAGAACUACAGAAAUGUAGUUAACGAGGAAGAGGUUUAUCGAAUUUUCGGCGGAUGCCGCCAAA [G32A G40A U69G], the “self-cleavage kobs at 2500 uM GlcN6P” value was < 1e-05 s⁻¹.
In the case of AUAAAAGCGCCAGAACUACAGAAAUGUAGUUCACGGGGAGGAGGUUUAACGAGUUUUCGGCGGAUGCUUCCAAA [G32C A36G U49A A53G C68U], the “self-cleavage kobs at 2500 uM GlcN6P” value is reported as < 1e-05 s⁻¹.
With AUAAAAGCGCCAGAACUACAGAAAUGUAGUUGCCGAGGAGGAGGUUUAUCGAAUUUUUGGCGGAUGCCUCGAAA [A33C C58U C71G] the “self-cleavage kobs at 2500 uM GlcN6P” value was < 1e-05 s⁻¹.

Variants of: B1
Assay: self-cleavage kobs at 10000 uM GlcN6P; higher = faster cleavage; RNA array
Settings: with glucosamine-6-phosphate
Procedure, shortened: as §1
For AUAAAAGCGCCAGAACUACAGAAAUGUAGUUUACUAGGAGGAGGUUUAUUGAAUUUUCGGCGGAUGCCUCCAAA [G32U G35U C50U], the “self-cleavage kobs at 10000 uM GlcN6P” value was < 1e-05 s⁻¹.
For AUAAAAGCGCCAGAACUACAGAAAUGUAGUGGACGAGGAGGACGUUUAUCGAAUGUUCGGCGGAUGCCUUCAAA [U31G G43C U55G C70U], the “self-cleavage kobs at 10000 uM GlcN6P” value was < 1e-05 s⁻¹.
AUAAAAGCGCCAGAACUACAGAAAUGUAGUUGCCGAGGAGGAGGUUUAUCGCAUUUUCGGCGGAUGCCUGCAAA [A33C A52C C70G] was tested, and the “self-cleavage kobs at 10000 uM GlcN6P” value was < 1e-05 s⁻¹.
With AUAAAAGCGCCAGAACUACAGAAAUGUAGUUAACGAGGAAGAGGUUUAUCGAAUUUUCGGCGGAUGCCGCCAAA [G32A G40A U69G] the “self-cleavage kobs at 10000 uM GlcN6P” value was < 1e-05 s⁻¹.
